Results as given in PMC7308337.
No constants are given. Whether binding was seen depends on the method and setting. In cells and extracts the contact can be indirect. Some results given as binding are weak or reduced against the parent protein; the word gives no strength. Where a sequence is shown, tags or fusion partners need not be part of it.

Chains of the proteins cited; added tags and fusions are not shown. Lines headed by an entry give the natural chain unless they say otherwise; changes in a name come on top.
UniProt Q9Y5Y6: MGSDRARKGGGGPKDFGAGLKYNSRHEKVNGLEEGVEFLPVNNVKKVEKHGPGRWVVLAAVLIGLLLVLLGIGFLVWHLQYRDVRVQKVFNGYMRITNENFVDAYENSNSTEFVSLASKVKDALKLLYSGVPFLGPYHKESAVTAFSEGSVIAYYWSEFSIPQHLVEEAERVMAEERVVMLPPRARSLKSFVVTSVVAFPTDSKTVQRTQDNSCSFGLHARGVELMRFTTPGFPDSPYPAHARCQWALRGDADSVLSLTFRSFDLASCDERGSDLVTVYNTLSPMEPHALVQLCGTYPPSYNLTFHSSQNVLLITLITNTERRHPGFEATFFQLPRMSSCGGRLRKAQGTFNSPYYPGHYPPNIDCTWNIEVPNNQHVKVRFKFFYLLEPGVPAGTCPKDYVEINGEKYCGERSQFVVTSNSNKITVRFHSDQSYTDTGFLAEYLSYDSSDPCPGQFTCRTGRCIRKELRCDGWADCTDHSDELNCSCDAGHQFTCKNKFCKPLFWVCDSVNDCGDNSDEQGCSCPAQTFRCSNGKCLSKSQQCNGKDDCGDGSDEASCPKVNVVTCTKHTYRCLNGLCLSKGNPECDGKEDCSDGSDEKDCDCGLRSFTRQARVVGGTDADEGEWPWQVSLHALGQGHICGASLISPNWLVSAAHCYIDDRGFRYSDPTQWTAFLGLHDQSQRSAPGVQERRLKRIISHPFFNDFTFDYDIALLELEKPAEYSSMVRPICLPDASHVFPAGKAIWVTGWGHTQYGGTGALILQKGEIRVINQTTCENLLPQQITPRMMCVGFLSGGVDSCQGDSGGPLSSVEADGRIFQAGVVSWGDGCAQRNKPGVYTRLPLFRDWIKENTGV

T1: APLP1 fused at its C terminus to GFP10 or RLucII (BRET2 pair) (human) (UniProt P51693)
T1 sequence: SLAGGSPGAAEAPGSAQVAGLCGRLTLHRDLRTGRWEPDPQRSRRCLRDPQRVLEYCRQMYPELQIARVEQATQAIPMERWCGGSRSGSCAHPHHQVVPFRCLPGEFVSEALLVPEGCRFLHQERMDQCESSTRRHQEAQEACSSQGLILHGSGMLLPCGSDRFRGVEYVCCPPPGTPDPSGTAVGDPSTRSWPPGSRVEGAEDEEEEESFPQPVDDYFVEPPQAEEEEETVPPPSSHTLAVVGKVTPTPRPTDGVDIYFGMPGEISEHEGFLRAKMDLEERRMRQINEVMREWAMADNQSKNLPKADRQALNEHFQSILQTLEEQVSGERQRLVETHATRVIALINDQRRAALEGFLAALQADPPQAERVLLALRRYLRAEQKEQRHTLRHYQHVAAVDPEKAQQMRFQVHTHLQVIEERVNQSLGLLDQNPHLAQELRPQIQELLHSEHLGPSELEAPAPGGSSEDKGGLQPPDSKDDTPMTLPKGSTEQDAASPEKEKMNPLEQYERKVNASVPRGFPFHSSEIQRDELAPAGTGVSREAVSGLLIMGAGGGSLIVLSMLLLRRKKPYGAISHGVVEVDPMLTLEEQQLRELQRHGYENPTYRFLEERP

T2: GFP-tagged APLP1 (amyloid-like protein 1) (human) (UniProt P51693)
T2 sequence: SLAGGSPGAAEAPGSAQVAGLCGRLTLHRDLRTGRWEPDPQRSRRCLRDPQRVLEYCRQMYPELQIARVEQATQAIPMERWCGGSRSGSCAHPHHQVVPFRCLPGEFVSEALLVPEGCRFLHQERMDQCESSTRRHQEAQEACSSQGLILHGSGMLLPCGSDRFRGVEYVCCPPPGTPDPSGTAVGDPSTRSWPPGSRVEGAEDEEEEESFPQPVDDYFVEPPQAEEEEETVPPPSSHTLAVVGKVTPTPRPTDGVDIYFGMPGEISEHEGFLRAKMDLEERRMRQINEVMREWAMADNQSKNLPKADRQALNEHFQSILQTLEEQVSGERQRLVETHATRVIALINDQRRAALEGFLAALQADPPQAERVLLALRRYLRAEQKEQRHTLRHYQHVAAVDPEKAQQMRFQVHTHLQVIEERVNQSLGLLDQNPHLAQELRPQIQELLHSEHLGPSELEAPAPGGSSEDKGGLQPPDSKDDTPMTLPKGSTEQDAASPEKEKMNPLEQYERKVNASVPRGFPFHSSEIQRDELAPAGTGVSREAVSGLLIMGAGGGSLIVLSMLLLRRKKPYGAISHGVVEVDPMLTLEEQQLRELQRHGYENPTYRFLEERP

T3: APLP1 tagged at its C-terminus with Flag (human) (UniProt P51693)
T3 sequence: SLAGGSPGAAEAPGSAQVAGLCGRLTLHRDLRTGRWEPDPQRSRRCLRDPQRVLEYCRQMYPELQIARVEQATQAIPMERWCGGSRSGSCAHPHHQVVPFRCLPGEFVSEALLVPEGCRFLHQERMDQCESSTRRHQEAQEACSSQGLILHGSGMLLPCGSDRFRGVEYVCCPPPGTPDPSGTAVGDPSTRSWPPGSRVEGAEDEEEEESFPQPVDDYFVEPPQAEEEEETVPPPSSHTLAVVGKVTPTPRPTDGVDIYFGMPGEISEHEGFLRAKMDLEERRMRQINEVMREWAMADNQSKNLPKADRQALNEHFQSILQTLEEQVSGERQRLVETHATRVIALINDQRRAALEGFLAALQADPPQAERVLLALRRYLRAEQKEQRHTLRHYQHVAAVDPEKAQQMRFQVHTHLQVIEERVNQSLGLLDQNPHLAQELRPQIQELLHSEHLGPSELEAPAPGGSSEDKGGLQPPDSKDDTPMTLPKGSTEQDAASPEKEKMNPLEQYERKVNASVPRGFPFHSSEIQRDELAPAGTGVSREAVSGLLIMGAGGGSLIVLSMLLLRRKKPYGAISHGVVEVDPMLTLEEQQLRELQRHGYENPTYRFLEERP

T4: GST-APLP1 C-term (intracellular domain of APLP1) (human) (UniProt P51693)
T4 sequence: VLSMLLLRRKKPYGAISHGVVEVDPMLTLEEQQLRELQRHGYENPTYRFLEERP

T5: GST-APLP1 N-term (extracellular domain of APLP1) (human) (UniProt P51693)
T5 sequence: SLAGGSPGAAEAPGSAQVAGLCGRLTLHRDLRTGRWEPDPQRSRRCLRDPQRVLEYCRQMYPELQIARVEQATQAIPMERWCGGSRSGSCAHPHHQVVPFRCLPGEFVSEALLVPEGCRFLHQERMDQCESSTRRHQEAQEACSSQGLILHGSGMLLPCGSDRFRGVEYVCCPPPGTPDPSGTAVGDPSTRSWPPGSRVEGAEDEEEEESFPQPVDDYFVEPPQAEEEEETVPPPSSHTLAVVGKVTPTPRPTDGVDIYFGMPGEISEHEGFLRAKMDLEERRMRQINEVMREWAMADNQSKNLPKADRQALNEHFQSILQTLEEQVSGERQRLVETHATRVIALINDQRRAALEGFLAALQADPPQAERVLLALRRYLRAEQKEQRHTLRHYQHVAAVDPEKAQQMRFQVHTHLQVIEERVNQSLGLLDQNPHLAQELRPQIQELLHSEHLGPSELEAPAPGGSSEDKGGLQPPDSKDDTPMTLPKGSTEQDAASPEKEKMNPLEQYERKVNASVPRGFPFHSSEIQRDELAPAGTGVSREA


What was measured:
[1] = biological target: T1, APLP1 fused at its C terminus to GFP10 or RLucII (BRET2 pair) (human); assay: FRET or BRET; BRET2 saturation in HEK293T cells: fixed RLucII-tagged APLP1 (100 ng DNA), increasing DNA of GFP10-tagged acceptor; 5 μM coelenterazine 400 A
[2] = biological target: T1, APLP1 fused at its C terminus to GFP10 or RLucII (BRET2 pair) (human); assay: FRET or BRET; BRET2 in HEK293T cells: fixed APLP1-GFP10 and APLP1-RLucII, co-transfected with increasing DNA of matriptase WT or S805A
[3] = biological target: T2, GFP-tagged APLP1 (amyloid-like protein 1) (human); assay: co-IP; co-immunoprecipitation of APLP1 with active and inactive (S805A) matriptase, referred to in the text; APLP1 construct and figure not named
[4] = biological target: T2, GFP-tagged APLP1 (amyloid-like protein 1) (human); assay: co-IP; HEK293T cells co-transfected; lysis in 50 mM Tris pH 7.4, 150 mM NaCl, 1% triton x-100; GFP-Trap beads overnight at 4 °C; immunoblot with anti-matriptase
[5] = biological target: T3, APLP1 tagged at its C-terminus with Flag (human); assay: co-IP; APLP1 tagged at its C-terminus with Flag and matriptase, in cellulo; Supplementary Fig. S2
[6] = biological target: T4, GST-APLP1 C-term (intracellular domain of APLP1) (human); assay: pull-down; 10 μg purified GST or GST fusion on glutathione beads, incubated with in vitro translated 35S-labeled matriptase; 20 mM Tris-HCl pH 7.4, 150 mM NaCl, 1% triton x-100, 2 h at 4 °C; autoradiography; only the target purified
[7] = biological target: T5, GST-APLP1 N-term (extracellular domain of APLP1) (human); assay: as above

binding [1] | binding [2] | Molecule | other results
no binding | – | angiotensin II type 1 receptor tagged with GFP10 (from UniProt P30556 1-359) | –
– | binds | matriptase, wild type (from UniProt Q9Y5Y6 1-855) (enzyme) | binding [4]: binds; binding [5]: binds

The remaining lines, values behind:

Molecule | binding [1] | binding [2] | other results
catalytically inactive matriptase S805A (from UniProt Q9Y5Y6 1-855) (enzyme) | – | binds | binding [3]: binds
in vitro translated 35S-labeled matriptase (from UniProt Q9Y5Y6 1-855) (enzyme) | – | – | binding [6]: no binding; binding [7]: binds
APLP1 fused at its C terminus to GFP10 or RLucII (BRET2 pair) (protein, UniProt P51693 39-650) SLAGGSPGAAEAPGSAQVAGLCGRLTLHRDLRTGRWEPDPQRSRRCLRDPQRVLEYCRQMYPELQIARVEQATQAIPMERWCGGSRSGSCAHPHHQVVPFRCLPGEFVSEALLVPEGCRFLHQERMDQCESSTRRHQEAQEACSSQGLILHGSGMLLPCGSDRFRGVEYVCCPPPGTPDPSGTAVGDPSTRSWPPGSRVEGAEDEEEEESFPQPVDDYFVEPPQAEEEEETVPPPSSHTLAVVGKVTPTPRPTDGVDIYFGMPGEISEHEGFLRAKMDLEERRMRQINEVMREWAMADNQSKNLPKADRQALNEHFQSILQTLEEQVSGERQRLVETHATRVIALINDQRRAALEGFLAALQADPPQAERVLLALRRYLRAEQKEQRHTLRHYQHVAAVDPEKAQQMRFQVHTHLQVIEERVNQSLGLLDQNPHLAQELRPQIQELLHSEHLGPSELEAPAPGGSSEDKGGLQPPDSKDDTPMTLPKGSTEQDAASPEKEKMNPLEQYERKVNASVPRGFPFHSSEIQRDELAPAGTGVSREAVSGLLIMGAGGGSLIVLSMLLLRRKKPYGAISHGVVEVDPMLTLEEQQLRELQRHGYENPTYRFLEERP | binds | binds | –
